The values that follow come from PubChem BioAssay AID1479 (National Center for Advancing Translational Sciences (NCATS), 2009).

The whole screen tested about 280,000 compounds, of which about 820 (0.29%) were called active. Another 1% or so got no clear call; they are omitted. Calls follow the shape of the dose curve; as a rule, active = well fitted curve in either direction with a large enough effect; inconclusive = small, poorly fitted or top-dose-only effect; inactive = flat fitted curve, though single readings scatter. The list shows a part of the results, in another mix than the full data. Some structures have more than one record in an assay (separate samples or runs), and their calls can disagree.
% is scaled to controls: 0 for no effect and ±100 for the full control effect; potency is read from the fitted curve at half-maximal effect; tags tell the direction and shape of the fitted curve or compound fluorescence and quenching.

The assay can be described thus: Total Fluorescence Counterscreen for Inhibitors of the Interaction of Thyroid Hormone Receptor and Steroid Receptor Coregulator 2. The settings on record: TRb/SRC2 Texas Red total fluorescence interference; series mostly up to 106 µM; fluorescence change, negative = quenching: at the top concentration. Summed up:
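Human TRb ligand-binding domain at 0.6 uM with 20 nM Texas Red SRC2 peptide in Tris buffer containing 1 uM T3 and 5% DMSO, incubated with compound 5 h at ambient temperature. Total fluorescence (555/632 nm) calculated as parallel + 2 × perpendicular.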
For orientation: The purpose of a counterscreen is to sort out artefacts and off-target activity.
With `Cc1cc(O)c2c(c1)C(=O)c1cc(O)cc(O)c1C2=O`, the Potency result is “inactive”.

For the compound `CNC(=O)Oc1ccc2c(c1)[C@]1(C)CCN(C)[C@@H]1N2C`, the Potency result was “inactive”.

For the compound `Cc1cc2c(C(C)C)c(O)c(O)c(C=O)c2c(O)c1-c1c(C)cc2c(C(C)C)c(O)c(O)c(C=O)c2c1O`, the “fluorescence change, negative = quenching” value (shortened to “fluorescence change”) is inactive: -19.9% [at 53 µM].

With `C#C[C@@]1(O)CC[C@@H]2[C@@H]3CCC4=CC(=O)CC[C@@]4(C)[C@H]3CC[C@]21C`, the “fluorescence change” value is inactive: -5.63% [at 53 µM].

As for `CN1C(=O)CCS(=O)(=O)[C@@H]1c1ccc(Cl)cc1`, the “fluorescence change” value is inactive: -3.38% [at 53 µM].

`CC[C@@]1(O)C(=O)OCc2c1cc1n(c2=O)-c2cc3ccccc3nc2C1`: the Potency entry was “inactive”.

Take `CN(C)[C@@H]1C(=O)C(C(N)=O)=C(O)[C@@]2(O)C(=O)C3=C(O)c4c(O)cccc4[C@@](C)(O)C3CC12` (some centres not stated): the “fluorescence change” value is inactive: -2.11%.

`NCC(CC(=O)O)c1ccc(Cl)cc1` (configuration not stated): the Potency result was “inactive”.

Consider `O=c1ccn([C@@H]2O[C@H](COP(=O)(O)OP(=O)(O)O)[C@@H](O)[C@H]2O)c(=O)[nH]1`, for which the “fluorescence change” value was inactive: -1.1%.

As for `Cc1ccc(N)c(N)c1`, the “fluorescence change” value was inactive: -2.55%.

In the case of `CC(=O)Nc1nnc(S(N)(=O)=O)s1`, the Potency entry is “inactive”.

As for `CC(C)NCC(O)COc1cccc2[nH]ccc12` (configuration not stated), the Potency entry was “inactive”.

Turning to `O=C1NC(=O)C(=C/C=C/c2coc3ccc(Br)cc3c2=O)C(=O)N1`, the Potency was active: 25.1 µM [fluorescent].

On to `Cc1ccccc1Cn1cnc2c(oc3ccccc32)c1=O`, for which the “fluorescence change” value was inactive: -1.6%.

Consider `CC[C@@H](CO)NC(=O)[C@@H]1C=C2c3cccc4c3c(cn4C)C[C@H]2N(C)C1`, for which the Potency result is “inactive”.

Turning to `CC(C)C[C@H](NC(=O)[C@H](Cc1ccccc1)NC(=O)CNC(=O)CNC(=O)[C@@H](N)Cc1ccc(O)cc1)C(=O)N[C@@H](CCCN=C(N)N)C(=O)N[C@@H](CCCN=C(N)N)C(=O)N[C@@H](CCC(N)=O)C(=O)N[C@@H](Cc1ccccc1)C(=O)N[C@@H](CCCCN)C(=O)N[C@H](C(=O)N[C@H](C(=O)N[C@H](C(=O)O)[C@@H](C)O)C(C)C)C(C)C`, the “fluorescence change” value is inactive: 0.948%.

For `CCCN1CCC[C@@H]2Cc3n[nH]cc3C[C@H]21`, the “fluorescence change” value was inactive: -3.27%.

For `Cc1cn([C@H]2C[C@H](O)[C@@H](CO)O2)c(=O)[nH]c1=O`, the Potency result was “inactive”.

With `CO/C1=C\C(C)=C\[C@@H](C)[C@@H](O)[C@@H](C)C/C(C)=C/C=C\[C@H](OC)C([C@@H](C)[C@@H](O)[C@H](C)[C@@]2(O)C[C@@H](O)[C@H](C)C(C(C)C)O2)OC1=O` (some centres not stated), the fluorescence change, negative = quenching is inactive: -7.11% [at 2.82 µM].

`COC[C@H](C)N(C(=O)CCl)c1c(C)csc1C`: the “fluorescence change” value is inactive: -3.95% [at 201 µM].

With `CCN(CC)c1ccc(/C=C2/C(=O)NC(=O)N(Cc3ccco3)C2=O)cc1`, the “fluorescence change” value is inactive: 26.6%.

On to `CCCCC/C=C\C/C=C\C/C=C\C/C=C\CCCC(=O)OCCN`, for which the “fluorescence change” value was inactive: -0.644%.
